This is a noisy data set.
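Note: [psi-pin-] Saccharomyces cerevisiae expressing SupN fusions, induced by 100 µM Cu2SO4, selected 7 d at 30 °C without adenine and uracil, scored by deep sequencing of output versus input.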

One data set is described as follows: amyloid nucleation score relative to library mode (yeast Sup35 reporter selection) (log enrichment difference); higher = more amyloid nucleation; sequences are the first 22 residues of the Bri2 peptide extended by up to 12 random residues. As to conditions: random library (experiment): 1;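 active = nucleation score significantly above 0 at FDR 0.05; inactive = not significantly above 0 or absent from output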.
For the sequence EASNCFAIRHFENKFAVETLICVFLRYITGVANA, the amyloid nucleation score is 1.62.

As for EASNCFAIRHFENKFAVETLICVFLTWVYQMVWT, the amyloid nucleation score entry is “inactive”.

Take EASNCFAIRHFENKFAVETLICVFLVPWNTRNVV: the amyloid nucleation score result is “inactive”.

As to EASNCFAIRHFENKFAVETLICVFM, the amyloid nucleation score turned out to be 4.72.

EASNCFAIRHFENKFAVETLICVFMDDGVARPVA showed an amyloid nucleation score of 7.73.

EASNCFAIRHFENKFAVETLICVFMDYNHEGAMV had an amyloid nucleation score of 6.29.

On to EASNCFAIRHFENKFAVETLICVFMGGFSCRNYG, for which the amyloid nucleation score came to 4.37.

For the sequence EASNCFAIRHFENKFAVETLICVFMKG, the amyloid nucleation score turned out to be 6.5.

EASNCFAIRHFENKFAVETLICVFPSEVLWRWWK returned an amyloid nucleation score of 4.73.

In the case of EASNCFAIRHFENKFAVETLICVFQAEWYHRYRA, the amyloid nucleation score was 2.48.

Consider EASNCFAIRHFENKFAVETLICVFRSLISIPVAS, for which the amyloid nucleation score entry was “inactive”.

Take EASNCFAIRHFENKFAVETLICVFRVYRPRSYLG: the amyloid nucleation score entry is “inactive”.

For EASNCFAIRHFENKFAVETLICVFSIAQCWSLPI, the amyloid nucleation score entry is “inactive”.

As for EASNCFAIRHFENKFAVETLICVFSMHSARVVKM, the amyloid nucleation score entry is “inactive”.

Consider EASNCFAIRHFENKFAVETLICVFTLNAIEYVKR, for which the amyloid nucleation score result is “inactive”.

In the case of EASNCFAIRHFENKFAVETLICVFTRICVSHNLW, the amyloid nucleation score result was “inactive”.

Regarding EASNCFAIRHFENKFAVETLICVFVFRWVLFHKP, the amyloid nucleation score result was “inactive”.

EASNCFAIRHFENKFAVETLICVFVGWVFWTFSS showed an amyloid nucleation score of 5.03.

Consider EASNCFAIRHFENKFAVETLICVFVRE, for which the amyloid nucleation score was 0.664.

Turning to EASNCFAIRHFENKFAVETLICVFVRRRRDGREV, the amyloid nucleation score is -0.273.

In the case of EASNCFAIRHFENKFAVETLICVFY, the amyloid nucleation score stood at 5.05.

In the case of EASNCFAIRHFENKFAVETLICVFYSGVKVIMHY, the amyloid nucleation score turned out to be 3.14.

In the case of EASNCFAIRHFENKFAVETLICVFYTSAYPPVTQ, the amyloid nucleation score result was “inactive”.

EASNCFAIRHFENKFAVETLICVG yielded an amyloid nucleation score of -0.626.

Turning to EASNCFAIRHFENKFAVETLICVGAADWMCSRMW, the amyloid nucleation score result was “inactive”.

Regarding EASNCFAIRHFENKFAVETLICVGAEV, the amyloid nucleation score entry was “inactive”.

Consider EASNCFAIRHFENKFAVETLICVGAGGRSLVVYS, for which the amyloid nucleation score was -0.528.

For the sequence EASNCFAIRHFENKFAVETLICVGASFRYLGQLL, the amyloid nucleation score entry was “inactive”.

EASNCFAIRHFENKFAVETLICVGAVVSLSRCYV: the amyloid nucleation score result was “inactive”.

Sequence EASNCFAIRHFENKFAVETLICVGAVWLLFNTCT returned an amyloid nucleation score of 6.55.

Regarding EASNCFAIRHFENKFAVETLICVGCSLAARMSRR, the amyloid nucleation score came to 5.47.

Still in this data set, the particulars now being: random library (experiment): 2.
EASNCFAIRHFENKFAVETLICVFKTGMLVVVQG displayed an amyloid nucleation score of -0.255.

On to EASNCFAIRHFENKFAVETLICVFLISDVKMVGE, for which the amyloid nucleation score result was “inactive”.

Consider EASNCFAIRHFENKFAVETLICVFLRCLSLKCYR, for which the amyloid nucleation score entry was “inactive”.

Take EASNCFAIRHFENKFAVETLICVFLVVS: the amyloid nucleation score was found to be 4.34.

For EASNCFAIRHFENKFAVETLICVFLYHHLVVDGG, the amyloid nucleation score result was “inactive”.

Regarding EASNCFAIRHFENKFAVETLICVFMFGA, the amyloid nucleation score is 8.44.

EASNCFAIRHFENKFAVETLICVFNI: the amyloid nucleation score came out at 6.19.

Turning to EASNCFAIRHFENKFAVETLICVFNIFLFQVARL, the amyloid nucleation score was -0.3.

The sequence EASNCFAIRHFENKFAVETLICVFNVYI had an amyloid nucleation score of 7.95.

EASNCFAIRHFENKFAVETLICVFPVLGEFIKQR returned an amyloid nucleation score of 7.54.

EASNCFAIRHFENKFAVETLICVFQDMKYFLCLQ: the amyloid nucleation score result is “inactive”.

For the sequence EASNCFAIRHFENKFAVETLICVFQLEYNCTASC, the amyloid nucleation score entry was “inactive”.

EASNCFAIRHFENKFAVETLICVFQLIFMMDRST: the amyloid nucleation score entry was “inactive”.

As for EASNCFAIRHFENKFAVETLICVFRDEMKDEVEA, the amyloid nucleation score is 5.03.

Take EASNCFAIRHFENKFAVETLICVFRVLTHTVSGG: the amyloid nucleation score result is “inactive”.

Consider EASNCFAIRHFENKFAVETLICVFRY, for which the amyloid nucleation score entry was “inactive”.

In the case of EASNCFAIRHFENKFAVETLICVFSRNTNSCLRR, the amyloid nucleation score entry is “inactive”.

With EASNCFAIRHFENKFAVETLICVFTFVCKAKSRL, the amyloid nucleation score entry was “inactive”.

On to EASNCFAIRHFENKFAVETLICVFTLPICRARSI, for which the amyloid nucleation score was 4.38.

On to EASNCFAIRHFENKFAVETLICVFTRRHVLESIR, for which the amyloid nucleation score result is “inactive”.

In the case of EASNCFAIRHFENKFAVETLICVFVCTNS, the amyloid nucleation score amounted to 5.7.

The sequence EASNCFAIRHFENKFAVETLICVFVDCSIQCFGD came in with an amyloid nucleation score of 6.89.

Consider EASNCFAIRHFENKFAVETLICVFWTSPYIVCDR, for which the amyloid nucleation score result is “inactive”.

Turning to EASNCFAIRHFENKFAVETLICVGAPEELQRRRE, the amyloid nucleation score was determined as 2.4.

Turning to EASNCFAIRHFENKFAVETLICVGASLEDGGFVV, the amyloid nucleation score result was “inactive”.

The same data set, now with this note: random library (experiment): 3.
As to EASNCFAIRHFENKFAVETLICVFMGSAMGWERR, the amyloid nucleation score is 3.24.

As for EASNCFAIRHFENKFAVETLICVFML, the amyloid nucleation score worked out at 6.46.

For EASNCFAIRHFENKFAVETLICVFNLFANRWSVR, the amyloid nucleation score entry is “inactive”.

With EASNCFAIRHFENKFAVETLICVFNMFHLVRFSS, the amyloid nucleation score result was “inactive”.

Turning to EASNCFAIRHFENKFAVETLICVFPPSASYMG, the amyloid nucleation score stood at 8.75.

Regarding EASNCFAIRHFENKFAVETLICVFQGSKLFASMT, the amyloid nucleation score amounted to 2.45.

The sequence EASNCFAIRHFENKFAVETLICVFRQLWVRMLMR gave an amyloid nucleation score of 1.2.

Regarding EASNCFAIRHFENKFAVETLICVFSLVFKTIGKS, the amyloid nucleation score result was “inactive”.

For EASNCFAIRHFENKFAVETLICVFTFGVRWVCGR, the amyloid nucleation score entry was “inactive”.

As to EASNCFAIRHFENKFAVETLICVFV, the amyloid nucleation score entry is “inactive”.

As to EASNCFAIRHFENKFAVETLICVFVWRGPEYPGD, the amyloid nucleation score entry is “inactive”.

EASNCFAIRHFENKFAVETLICVFWPSLSPSVLS: the amyloid nucleation score was found to be 1.19.

On to EASNCFAIRHFENKFAVETLICVFYMQLRSANVL, for which the amyloid nucleation score entry is “inactive”.

Sequence EASNCFAIRHFENKFAVETLICVGARC returned an amyloid nucleation score of 1.4.

As for EASNCFAIRHFENKFAVETLICVGARSAYYSWLG, the amyloid nucleation score was determined as 4.92.

Regarding EASNCFAIRHFENKFAVETLICVGAVENARSRQV, the amyloid nucleation score result was “inactive”.

As for EASNCFAIRHFENKFAVETLICVGAWLIPAVCYA, the amyloid nucleation score entry is “inactive”.

On to EASNCFAIRHFENKFAVETLICVGCDCRGWVHGP, for which the amyloid nucleation score stood at 8.53.

As to EASNCFAIRHFENKFAVETLICVGCGDPIRGLCV, the amyloid nucleation score entry is “inactive”.

The record behind these values is the supplement of paper PMC12067230.
